{"source": "paper PMC4336329", "about": "(PLoS ONE, 2015)", "note": "About 2,200 (0.71%) of roughly 310,000 compounds showed an effect of 50% or more. Effects have a minus sign here. Some of the results follow."}
{"target": "human ether-à-go-go-related gene (hERG) potassium channel (human, UniProt Q12809)", "sequence (Q12809 whole entry, looked up)": "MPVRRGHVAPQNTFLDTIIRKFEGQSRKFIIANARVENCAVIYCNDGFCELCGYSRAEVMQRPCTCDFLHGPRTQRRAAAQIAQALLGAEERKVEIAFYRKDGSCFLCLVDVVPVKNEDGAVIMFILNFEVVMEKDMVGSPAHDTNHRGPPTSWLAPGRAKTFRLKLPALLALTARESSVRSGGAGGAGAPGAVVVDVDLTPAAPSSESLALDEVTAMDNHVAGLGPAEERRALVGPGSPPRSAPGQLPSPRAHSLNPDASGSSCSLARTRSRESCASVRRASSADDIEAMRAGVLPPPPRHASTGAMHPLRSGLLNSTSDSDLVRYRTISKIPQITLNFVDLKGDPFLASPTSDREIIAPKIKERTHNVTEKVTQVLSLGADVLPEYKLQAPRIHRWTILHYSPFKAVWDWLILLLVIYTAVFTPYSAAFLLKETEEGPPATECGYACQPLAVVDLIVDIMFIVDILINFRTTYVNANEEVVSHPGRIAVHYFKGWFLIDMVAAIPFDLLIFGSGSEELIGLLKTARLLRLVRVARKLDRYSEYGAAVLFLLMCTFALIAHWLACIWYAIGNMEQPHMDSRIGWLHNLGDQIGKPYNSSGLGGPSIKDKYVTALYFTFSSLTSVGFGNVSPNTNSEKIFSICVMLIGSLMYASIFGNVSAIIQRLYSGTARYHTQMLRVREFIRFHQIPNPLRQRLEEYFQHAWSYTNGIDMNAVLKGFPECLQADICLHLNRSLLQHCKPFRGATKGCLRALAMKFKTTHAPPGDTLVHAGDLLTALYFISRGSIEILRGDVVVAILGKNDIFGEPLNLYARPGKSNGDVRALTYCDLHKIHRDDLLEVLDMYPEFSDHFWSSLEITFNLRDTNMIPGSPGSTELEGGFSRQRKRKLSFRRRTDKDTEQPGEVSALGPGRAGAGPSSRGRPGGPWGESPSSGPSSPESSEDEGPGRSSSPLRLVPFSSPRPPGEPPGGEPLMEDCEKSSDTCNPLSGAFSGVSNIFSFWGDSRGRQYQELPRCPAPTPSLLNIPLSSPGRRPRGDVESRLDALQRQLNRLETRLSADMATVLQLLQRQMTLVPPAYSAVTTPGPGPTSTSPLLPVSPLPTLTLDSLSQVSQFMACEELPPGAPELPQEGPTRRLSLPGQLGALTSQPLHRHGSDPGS", "test": "primary screen, population patch clamp on CHO cells stably expressing hERG", "units": {"hERG current change (%, negative = inhibition) at 1uM": "%"}}
{"molecule": "COC(CNC(=O)c1ccc(Cn2c(=S)[nH]c3cc4c(cc3c2=O)OCO4)cc1)OC", "hERG current change (%, negative = inhibition) at 1uM": 8.22}
{"molecule": "COc1ccc(/C=C(/NC(=O)c2ccccc2)C(=O)NCCCn2ccnc2)cc1OC", "hERG current change (%, negative = inhibition) at 1uM": 15.3}
{"molecule": "CCN(CC)CCNC(=O)c1cn(CC)c2ccc(S(=O)(=O)N(C)C)cc2c1=O", "hERG current change (%, negative = inhibition) at 1uM": 14.6}
{"molecule": "COc1ccc(-c2nn(-c3ccccc3)cc2/C=N/Nc2ccc(Cl)c(C(=O)O)c2)cc1OC", "hERG current change (%, negative = inhibition) at 1uM": 12.1}
{"molecule": "O=C1NC2(CCCCCC2)C(=O)N1Cc1cccc(Cl)c1", "hERG current change (%, negative = inhibition) at 1uM": 9.54}
{"molecule": "O=[N+]([O-])c1nn(-c2ccccc2)n(O)c1=NCCc1ccccc1", "hERG current change (%, negative = inhibition) at 1uM": -2.36}
{"molecule": "CN(CC1CCCO1)S(=O)(=O)c1ccc(C(=O)Nc2ccc(F)cc2)cc1", "note": "(centres unmarked)", "hERG current change (%, negative = inhibition) at 1uM": 19.2}
{"molecule": "CCCOC(=O)c1ccc(NC(=O)c2ccoc2C)cc1", "hERG current change (%, negative = inhibition) at 1uM": -1.93}
{"molecule": "CN(C)/C=N/S(=O)(=O)c1ccc(Cl)c(Cl)c1", "hERG current change (%, negative = inhibition) at 1uM": -10.2}
{"molecule": "CCOC(=O)N1CCN(/C=C(\\C#N)c2nc3ccccc3s2)CC1", "hERG current change (%, negative = inhibition) at 1uM": -36.7}
{"molecule": "COC(=O)CCC(=O)OC1(C)C(=O)C2=CN(CC3CC3)C(c3ccc(OC)cc3)=CC2=C(Br)C1=O", "note": "(centres unmarked)", "hERG current change (%, negative = inhibition) at 1uM": 4.39}
{"molecule": "COc1ccccc1CNC(=O)Cc1c[nH]c2ccccc12", "hERG current change (%, negative = inhibition) at 1uM": 13.4}
{"molecule": "COc1ccc(-c2csc(NC(=O)CSCc3c(C)noc3C)n2)cc1OC", "hERG current change (%, negative = inhibition) at 1uM": 7.23}
{"molecule": "Oc1ccc(C[C@@H]2CNCCN2CCC23CC4CC(CC(C4)C2)C3)cc1", "hERG current change (%, negative = inhibition) at 1uM": -6.61}
{"molecule": "Nc1ncnc(Nc2ccc(F)cc2)n1", "hERG current change (%, negative = inhibition) at 1uM": 7.65}
{"molecule": "O=C(COC(=O)Cc1ccccc1)Nc1ccc(Cl)cn1", "hERG current change (%, negative = inhibition) at 1uM": 9.25}
{"molecule": "Cc1ccc(NS(=O)(=O)c2cccc(C(=O)NNC(=O)NC3CCCCC3)c2)c(C)c1", "hERG current change (%, negative = inhibition) at 1uM": 4.16}
{"molecule": "CCOC(=O)C1=C(C)OC(N)=C(C(=O)OCC)C12C(=O)Nc1ccc(Br)cc12", "note": "(centres unmarked)", "hERG current change (%, negative = inhibition) at 1uM": -0.646}
{"molecule": "CCCCNC(=O)CN1C(=O)COc2ccc(S(=O)(=O)N3CCCCCC3)cc21", "hERG current change (%, negative = inhibition) at 1uM": 5.74}
{"molecule": "CC1(C)c2ccccc2N2CC(=O)N(CC(N)=O)C21C", "note": "(centres unmarked)", "hERG current change (%, negative = inhibition) at 1uM": 2.95}
{"molecule": "O=C(NCc1ccc(Cl)cc1)c1ccc(CS(=O)Cc2cccc(Cl)c2)o1", "note": "(centres unmarked)", "hERG current change (%, negative = inhibition) at 1uM": 5.33}
{"molecule": "CCC1=NN(S(=O)(=O)c2ccc(C)cc2)C(O)(C(F)(F)F)C1", "note": "(centres unmarked)", "hERG current change (%, negative = inhibition) at 1uM": 18.4}
{"molecule": "CC1(C)C2CCC1(C)C(OC(=O)CCn1ccnc1)C2", "note": "(centres unmarked)", "hERG current change (%, negative = inhibition) at 1uM": -7.41}
{"molecule": "CC(NC(=O)CSC(=S)N1CCCC1)c1ccc(S(N)(=O)=O)cc1", "note": "(centres unmarked)", "hERG current change (%, negative = inhibition) at 1uM": 9.49}
{"molecule": "CCOc1cc2[nH]c(=O)n(CCCCC(=O)NCc3ccco3)c(=O)c2cc1OCC", "hERG current change (%, negative = inhibition) at 1uM": 8.99}
{"molecule": "CS(=O)(=O)N1CCN(C(=O)c2cc(-c3cccnc3)nc3ccc(Br)cc23)CC1", "hERG current change (%, negative = inhibition) at 1uM": 9.01}
{"molecule": "Cc1cccc(NC(=S)N2CCN(c3ccc(F)cc3)CC2)c1", "hERG current change (%, negative = inhibition) at 1uM": -6.29}
{"molecule": "O=C1C2C3C=CC(C4CC34)C2C(=O)N1Cc1ccccc1", "note": "(centres unmarked)", "hERG current change (%, negative = inhibition) at 1uM": 18.8}
{"molecule": "CCOc1ccc(CNC(=O)CCC(=O)n2nc(C)c3ccccc32)cc1", "hERG current change (%, negative = inhibition) at 1uM": 11}
{"molecule": "COc1ccccc1S(=O)(=O)Nc1cc(C)nn1-c1ccc(C)cc1", "hERG current change (%, negative = inhibition) at 1uM": 11.4}
{"molecule": "COC(=O)/C=C/C(=O)Nc1ccc(O)c(Cl)c1", "hERG current change (%, negative = inhibition) at 1uM": 1.7}
{"molecule": "CCOC(=O)c1c(NC(=S)N2CCCCC2)sc2c1CCN(C(=O)OCC)C2", "hERG current change (%, negative = inhibition) at 1uM": 9.2}
{"molecule": "O=C(CNC(=O)c1cccs1)OCc1c(F)cccc1Cl", "hERG current change (%, negative = inhibition) at 1uM": 12.6}
{"molecule": "CC1CCCC(C)N1C(=O)COC(=O)c1nn(C)c(=O)c2ccccc12", "note": "(centres unmarked)", "hERG current change (%, negative = inhibition) at 1uM": 15.3}
{"molecule": "CN(C)S(=O)(=O)c1cc(C(=O)Nc2ccccc2C(=O)NC2CC2)ccc1Cl", "hERG current change (%, negative = inhibition) at 1uM": -3.31}
{"molecule": "CCC(C)c1ccc(NC(=O)N2CCN(C(=O)C3CCCO3)CC2)cc1", "note": "(centres unmarked)", "hERG current change (%, negative = inhibition) at 1uM": 12.7}
{"molecule": "Cc1ccc(-c2nc(CSCC(=O)NCc3cccnc3)c(C)o2)cc1", "hERG current change (%, negative = inhibition) at 1uM": 2.19}
{"molecule": "Cc1cc(C)n2nc(S(=O)(=O)NCCc3ccccc3)nc2n1", "hERG current change (%, negative = inhibition) at 1uM": 8.79}
{"molecule": "CC(C)Cn1c(N)c(C(=O)COC(=O)c2cc(C3CC3)nc3ccccc23)c(=O)n(C)c1=O", "hERG current change (%, negative = inhibition) at 1uM": 9.29}
{"molecule": "Nc1c(NCc2ccccc2F)c(=O)[nH]c(=O)n1Cc1ccccc1", "hERG current change (%, negative = inhibition) at 1uM": 5.48}
{"molecule": "O=C(Cc1ccc(Br)cc1)Nc1ccc2[nH]ncc2c1", "hERG current change (%, negative = inhibition) at 1uM": 18.1}
{"molecule": "COc1ccc(OCCCC(=O)Nc2ccc3c(c2)OCO3)cc1", "hERG current change (%, negative = inhibition) at 1uM": -3.12}
{"molecule": "CS(=O)(=O)N(CC(=O)Nc1cccnc1)c1ccc2c(c1)OCCO2", "hERG current change (%, negative = inhibition) at 1uM": 13.5}
{"molecule": "COc1ccc2cc(S(=O)(=O)NC3CC(C)(C)NC(C)(C)C3)ccc2c1", "hERG current change (%, negative = inhibition) at 1uM": -3.14}
